Data published in PubChem BioAssay AID493208 (National Center for Advancing Translational Sciences (NCATS), 2011).
Out of some 44,000 compounds screened, about 340 (0.77%) were called active. Not shown: some 5% with an inconclusive outcome. Calls come from the whole dose curve; as a rule, active = well fitted inhibition curve with a large enough effect; inconclusive = small, poorly fitted or top-dose-only effect; inactive = flat fitted curve, though single readings scatter. Some of the results follow.

test: Acumen qHTS Assay for Inhibitors of the mTORC1 Signaling Pathway in MEF (Tsc2-/-, p53-/-) Cells: Sytravon; conditions: phospho-rpS6 immunofluorescence/PI, 24 h; series mostly up to 38.3 µM; activity change, negative = inhibition: at the top concentration;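 note: plate controls were DMSO for no effect and rapamycin for full effect; nearly all actives have a fitted effect of over 50% in size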
Summary of the method: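 Cell-based qHTS: Tsc2-/- p53-/- MEF, 24 h cpd, 37 °C; fix/perm, anti-phospho-S6 Alexa-488 + PI; Acumen 488 nm scan; pS6/PI ratio, % positive cells; rapamycin 7.5 nM = inhibition ref; PI count = viability.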

Activity change, negative = inhibition, inactive:
CCc1cccc(NC(=O)CN2C(=O)COc3ccc(S(=O)(=O)N4CCC(C)CC4)cc32)c1 3.41%
CCOCCCNC(=O)C(c1ccc(OC)cc1)N(Cc1cccs1)C(=O)CNC(C)=O (stereo unspecified) -7.61%
CCOC(=O)c1cc2c(=O)n3ccccc3nc2n(CCCOC)c1=NC(=O)c1cc2ccccc2o1 1.42%
COc1ccc(NC(=O)Cn2c(=O)n(Cc3ccccc3Cl)c(=O)c3cc(OC)c(OC)cc32)cc1 4.81%
Cc1ccc(Cn2c(C)c3cnn(CC(=O)N4CCN(c5cc(C)ccc5C)CC4)c(=O)c3c2C)cc1 -4.65%
COc1cccc(-n2c(C)nc3c(cnn3-c3ccc(C)c(C)c3)c2=O)c1 -4.88%
Cc1ccc(CCNC(=O)c2cc3ccccn3n2)cc1 2.82%
O=c1oc2ccc(Cl)cc2cc1-c1nc(-c2cccs2)no1 -0.356%
COC(=O)c1c(NC(=O)CS(=O)(=O)c2ccc(C)cc2)sc2c1CCCCC2 -0.916%
CCOc1cc2[nH]c(=O)n(CCC(=O)N3CCN(c4ccccc4)CC3)c(=O)c2cc1OCC -6.54%
Cc1ccc(-n2nc3c(N4CCCC(C(=O)NCc5ccccc5C)C4)nnc(C)c3c2C)cc1 (stereo unspecified) -3.37%
COc1cccc(C(=O)NCc2cn3cccc(C)c3n2)c1 0.0506%
Cn1c(=O)n(C)c2cc(CNCc3ccccc3Cl)ccc21 -6.44%
Cc1ccc2scc(N3CCCC(C)C3)c(=O)c2c1 (stereo unspecified) 1.03%
CCCn1c(=N)c(C(=O)NC(C)c2ccccc2)cc2c(=O)n3ccccc3nc21 (stereo unspecified) 0.344%
O=C(c1ccc(Cl)cc1)n1nc(-c2ccccc2)nc1NCc1ccco1 -8.96%
CCOc1ccc(S(=O)(=O)Nc2cc3c(C(=O)OCc4ccccc4)c(C)oc3c3ccccc23)cc1 -10.9%
CC(C)c1ccc(NC(=O)CSC2=Nc3ccccc3C3=NC(CCC(=O)NCc4cccs4)C(=O)N23)cc1 (stereo unspecified) -5.72%
COc1ccc2c(c1)c1c(c(=O)n(-c3cc(Cl)ccc3C)c(=O)n1Cc1ccc(F)cc1)n2C -13.7%
Cc1ccc(NC(=O)N2CCN3CCCCC3C2)cc1C (stereo unspecified) -0.756%
Cc1c(Cl)cccc1-n1ncc(C(=O)NC2CCCC2)c1C1CCN(C(=O)OC(C)(C)C)CC1 6.54%
CCSc1ncc(Cl)c(C(=O)Nc2cc(C)ccc2C)n1 5.83%
COc1ccccc1C(=O)OCc1cc(=O)n2c(C)csc2n1 0.623%
CCCOC(=O)c1c(-c2ccccc2)c(-c2ccccc2)nn(C)c1=O -2.13%
CC(=O)c1c(C)n(-c2cccc(Cl)c2)c2ccc(OC(=O)c3ccccc3)cc12 1.38%
COc1ccc(-c2[nH]c(-c3ccc(C)cc3)nc2SCC(=O)NCC2CCCO2)cc1 (stereo unspecified) -20.6%
COc1cccc(NC(=O)CSc2nc(=O)[nH]c3c2CCCC3)c1 -3.11%
COc1ccc(Br)cc1CNCc1c(C(=O)O)c(C)n(Cc2ccccc2C)c1C 0.466%
CCOc1ccc(-c2cc3nc(C4CCN(C(=O)OC(C)(C)C)CC4)c(C(=O)Nc4cccc(C(F)(F)F)c4)cn3n2)cc1 -18.1%
Cc1cc2c(cc1S(=O)(=O)CCC(=O)N1CCN(c3ccccc3)CC1)OCC(=O)N2 2.56%
CCCCCOC(=O)CSc1nc2sc3c(c2c(=O)n1Cc1ccccc1)CC(C)(CC)OC3 (stereo unspecified) 11.7%
CCS(=O)(=O)N1CC(=O)N(c2cc(Cl)ccc2C)C(C)(C(=O)NC2CCCCCC2)C1 (stereo unspecified) 2.06%
COc1ccc(-c2nc3scc(CCNS(=O)(=O)c4cccs4)n3n2)cc1 -12.8%
COc1ccc(CNC(=O)CCc2c(C)nn(-c3ccc(N4CCCC4)nn3)c2C)cc1 7.21%
Cc1ccc(-n2c(=O)c3c4c(sc3n(CC(=O)C(C)(C)C)c2=O)CCCCC4)cc1C -9.34%
COc1cccc(C(=O)NC2=NC(c3ccccc3F)CC(=O)N2)c1 (stereo unspecified) 3.89%
COc1cc(Cl)c(NS(=O)(=O)c2cc3[nH]c(=O)c(=O)[nH]c3cc2C)c(OC)c1 -1.25%
CCOC(=O)Cc1ccc(NC(=O)Nc2nnc(N3CCCCC3C)s2)cc1 (stereo unspecified) -8.07%
O=C(Nc1ccc2c(c1)CCCN2C(=O)c1cccs1)c1ccccc1C(F)(F)F 0%
COC(=O)c1ccc(NC(=O)c2c(-c3ccccc3)c(-c3ccccc3)nn(C)c2=O)cc1 4.04%
CCC(=O)N1CCc2cc(Br)cc(S(=O)(=O)NCCc3ccc(C)cc3)c21 -22.5%
CCCN(C(=O)c1cc2c(s1)-c1ccccc1OC2)c1ccc(C(C)C)cc1 5.7%
Cc1cccc(OC(=O)c2snnc2C)c1C 1.51%
CCc1ccc(Nc2nc(-c3cc4cccc(OC)c4oc3=O)c(CC)s2)cc1 -10.3%
CCOC(=O)c1ccc(NC(=O)Nc2cc3c(cc2N2CCCCC2)n(CC)c(=O)n3CC)cc1 2.05%
Cc1ccc(NC(=O)C2CCC(CNS(=O)(=O)c3cccs3)CC2)cc1C (stereo unspecified) -18.6%
CCOC(=O)C1CCN(C(=O)c2ccc(C)c(NC(=O)c3nsc4ccccc34)c2)CC1 1.1%
CCC(=O)N1c2ccc(S(=O)(=O)CCC(=O)NCc3ccc(OC)cc3)cc2CC1C (stereo unspecified) -0.999%
O=S(=O)(Nc1ccc(OC(F)(F)F)cc1)c1ccc(N2CCCCS2(=O)=O)cc1 5.7%
Cc1cc(C)c(S(=O)(=O)NCC(c2ccco2)S(=O)(=O)c2ccccc2)c(C)c1 (stereo unspecified) -5.39%
CCc1cccc(C)c1Nc1c(-c2cccs2)nc2ncccn12 -7.89%
O=C(Cn1c(=O)c2ccccc2n(CC(=O)Nc2ccccc2F)c1=O)NCCc1ccccc1 -11.7%
Cc1cc(C)c(NC(=O)CCN2CCCCC2)c(C)c1 2.14%
CC(C)c1ccc(S(=O)(=O)NCc2nc3cccnc3n2Cc2ccc(F)cc2)cc1 -0.588%
CC1=C(C(=O)Nc2cc(C)cc(C)c2)C2(CCCCC2)OC1=O 1.87%
COc1ccc(NC(=O)COCc2cc(-c3ccco3)on2)cc1Cl -2.38%
CCc1ccc(-n2c(=O)c3sc4ccccc4c3n(CC(=O)NC3CCCC3)c2=O)cc1 0.805%
COc1cc(OC)c(NC(=O)CCc2nc(C3=CCN(Cc4cccc(Cl)c4)CC3)no2)cc1Cl -4.14%
COc1ccc(CCNC(=O)CCc2c(C)c3ccc(O)c(C)c3oc2=O)cc1 3.15%
Cc1nc2nc(CNC(=O)OC(C)(C)C)nn2c(C)c1CCC(=O)NCc1ccccc1Cl -6.88%
Nc1nc(N)c(S(=O)(=O)c2ccccc2)c(Nc2ccccc2)n1 4.34%
